Test results taken from the supplement of paper PMC10441789.
This is one part of the list. Antibody binding of pooled human sera (four to six donors per pool; dilution not stated) to peptides of the Trypanosoma cruzi antigen TSSA on microarrays. Quantile-normalised fluorescence in arbitrary units, mean of duplicate arrays; higher = more binding. No active / inactive call. The uninfected pools are read here as the healthy donors of the same country. The strongest signals lie near the top of the scale (about 60,000).

What was measured:
Assay in all cases: antibody binding signal (normalised fluorescence) (arbitrary fluorescence units); higher = stronger serum antibody binding to peptide
[1] = test system: pooled sera of chronic Chagas disease patients, Argentina
Experimental: (§1)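 Microarray of 15-residue peptides over residues 30-55 of Trypanosoma cruzi TSSAII, each with 1 to 10 substitutions at naturally variable positions, probed with one serum pool per country.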

[2] = test system: pooled sera of chronic Chagas disease patients, Bolivia
Experimental: as §1

[3] = test system: pooled sera of chronic Chagas disease patients, Brazil
Experimental: as §1

[4] = test system: pooled sera of chronic Chagas disease patients, Colombia
Experimental: as §1

[5] = test system: pooled sera of chronic Chagas disease patients, Mexico
Experimental: as §1

[6] = test system: pooled sera of chronic Chagas disease patients, USA
Experimental: as §1

[7] = test system: pooled sera of uninfected people, Argentina
Experimental: as §1

[8] = test system: pooled sera of uninfected people, Bolivia
Experimental: as §1

[9] = test system: pooled sera of uninfected people, Brazil
Experimental: as §1

[10] = test system: pooled sera of uninfected people, Colombia
Experimental: as §1

[11] = test system: pooled sera of uninfected people, Mexico
Experimental: as §1

[12] = test system: pooled sera of uninfected people, USA
Experimental: as §1

| Sequence | antibody binding signal [1] | antibody binding signal [2] | antibody binding signal [3] | antibody binding signal [4] | antibody binding signal [5] | antibody binding signal [6] | antibody binding signal [7] | antibody binding signal [8] | antibody binding signal [9] | antibody binding signal [10] | antibody binding signal [11] | antibody binding signal [12] |
| --- | --- | --- | --- | --- | --- | --- | --- | --- | --- | --- | --- | --- |
| GTDKKAATGETPSQS | 2080 | 1410 | 16200 | 2560 | 439 | 10000 | 385 | 341 | 200 | 623 | 425 | 212 |
| STPPSGKEKKTATGE | 17800 | 1190 | 896 | 606 | 23800 | 1570 | 509 | 859 | 123 | 308 | 171 | 173 |
| GKEKKAAAGEAPSQP | 5970 | 2120 | 26600 | 4810 | 6230 | 10300 | 99.7 | 98 | 101 | 93.5 | 67 | 95.5 |
| DKKTAAGGAPSPPGA | 373 | 1030 | 283 | 7060 | 882 | 928 | 252 | 121 | 132 | 266 | 370 | 151 |
| GKDNKPAAGETPSPP | 843 | 268 | 16800 | 1060 | 1580 | 3840 | 298 | 809 | 136 | 228 | 442 | 356 |
| KENKPAAGGTPSQPG | 270 | 238 | 2680 | 1240 | 447 | 1370 | 335 | 237 | 444 | 217 | 255 | 187 |
| TENKAATGEAPSPPG | 31400 | 41100 | 38500 | 249 | 207 | 25400 | 170 | 134 | 166 |  | 97.6 | 135 |
| ISTPPSGTDNKAAAG | 54400 | 49000 | 56100 | 4070 | 32000 | 20000 | 1240 | 739 | 2240 |  | 428 | 390 |
| PSGKDNKPAAGEAPS | 4110 | 1260 | 18400 | 5160 | 4850 | 18200 | 861 | 1440 | 383 | 203 | 371 | 153 |
| ISTPPSGTDNKTATG | 34900 | 50100 | 52200 | 1330 | 14800 | 20700 | 1120 | 685 | 1530 | 229 | 306 | 419 |
| PPSGKDNKAAAGEAP | 428 | 515 | 5200 | 715 | 2400 | 8400 | 445 | 702 | 175 | 320 | 134 | 192 |
| DNKTATGEAPSPSGA | 14800 | 35700 | 16300 | 290 | 284 | 11900 | 222 | 153 | 255 | 133 | 131 | 132 |
| TEKKTATGEAPSQSG | 12500 | 26100 | 18300 | 362 | 967 | 20600 | 277 | 195 | 272 | 104 | 264 | 174 |
| GKDKKTATGETPSPS | 810 | 220 | 493 | 1320 | 1300 | 5080 | 231 | 106 | 97.5 |  | 95.1 | 711 |
| TPPSGKEKKAAAGET | 6570 | 509 | 632 | 904 | 21700 | 1880 | 418 | 598 | 131 | 259 | 92.6 | 136 |
| GKDNKAATGEAPSPP | 28000 | 19000 | 34600 | 5980 | 6720 | 24500 | 264 | 310 | 128 |  | 91.8 | 108 |
| SGKDKKAAAGGAPSP | 452 | 170 | 269 | 2350 | 1190 | 1170 | 115 | 67.4 | 85.7 |  | 82.9 | 94.6 |
| TISTPPSGTENKTAA | 50900 | 45800 | 51700 | 365 | 4320 | 25900 | 6840 | 826 | 703 | 1070 | 579 | 905 |
| SGKEKKPATGGAPSQ | 8020 | 510 | 4110 | 2930 | 3980 | 4950 | 283 | 350 | 103 | 127 | 85.9 | 215 |
| PSGTDNKAATGGTPS | 19300 | 11100 | 43400 | 1140 | 928 | 853 | 227 | 621 | 1640 | 405 | 310 | 206 |
| NKPATGETPSQPGAS | 19300 | 30700 | 42500 | 251 | 248 | 24500 | 603 | 2280 | 880 | 528 | 1550 | 1210 |
| TEKKPAAGEAPSPPG | 1530 | 228 | 15200 | 332 | 339 | 15400 | 121 | 154 | 237 | 100 | 181 | 561 |
| PSGTDKKAAAGGAPS | 1630 | 556 | 3570 | 8240 | 2460 | 1930 | 225 | 714 | 157 | 187 | 860 | 223 |
| PPSGKDKKAATGGTP | 1150 | 314 | 528 | 954 | 29700 | 1370 | 234 | 247 | 191 | 366 | 81.8 | 105 |
| KKTAAGEAPSPPGAS | 168 | 298 | 371 | 303 | 212 | 3400 | 306 | 243 | 106 | 742 | 101 | 324 |
